Source: paper PMC7774019
No constants are given. Whether binding was seen depends on the method and setting. In cells and extracts the contact can be indirect. Some results given as binding are weak or reduced against the parent protein; the word gives no strength. Tags and fused reporters may be left off the sequences shown.

The chains behind the UniProt entries cited, without tags or fusion partners.
UniProt Q7Z434: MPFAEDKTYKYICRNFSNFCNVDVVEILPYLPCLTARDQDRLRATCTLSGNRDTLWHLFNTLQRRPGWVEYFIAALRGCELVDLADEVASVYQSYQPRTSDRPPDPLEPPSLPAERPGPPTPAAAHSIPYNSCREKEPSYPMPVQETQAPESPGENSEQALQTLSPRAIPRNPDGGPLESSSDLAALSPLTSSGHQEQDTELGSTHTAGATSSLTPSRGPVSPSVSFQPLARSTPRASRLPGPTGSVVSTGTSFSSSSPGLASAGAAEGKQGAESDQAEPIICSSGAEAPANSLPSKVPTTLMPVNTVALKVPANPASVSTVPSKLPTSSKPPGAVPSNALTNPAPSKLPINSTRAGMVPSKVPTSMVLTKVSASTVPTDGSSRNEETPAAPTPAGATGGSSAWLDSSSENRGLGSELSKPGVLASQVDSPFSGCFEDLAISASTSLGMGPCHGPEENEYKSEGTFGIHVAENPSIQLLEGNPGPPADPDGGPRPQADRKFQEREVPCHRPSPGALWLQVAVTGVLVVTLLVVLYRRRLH

Columns and labels:
[1] = target: T1, Flag-tagged EBV BFRF1 (Epstein-Barr virus (B95-8 strain)) (UniProt P03185); experiment: co-IP; HEK293T co-transfected with tagged plasmids for 24 h, lysed in RIPA buffer; lysate with anti-Flag mAb or nonspecific mouse IgG at 4°C, protein A/G PLUS-Agarose, washed with PBS; western blot
T1 sequence: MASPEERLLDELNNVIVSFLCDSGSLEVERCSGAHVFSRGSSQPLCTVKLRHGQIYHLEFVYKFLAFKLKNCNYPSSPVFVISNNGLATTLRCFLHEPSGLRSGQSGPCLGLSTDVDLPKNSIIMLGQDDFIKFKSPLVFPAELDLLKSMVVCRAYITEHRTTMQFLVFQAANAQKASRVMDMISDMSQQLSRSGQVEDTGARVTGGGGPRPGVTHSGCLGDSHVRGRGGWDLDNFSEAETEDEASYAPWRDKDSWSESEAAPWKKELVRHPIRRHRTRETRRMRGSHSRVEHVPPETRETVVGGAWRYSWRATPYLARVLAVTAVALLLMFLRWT

[2] = target: T1, Flag-tagged EBV BFRF1 (Epstein-Barr virus (B95-8 strain)); experiment: co-IP; HEK293T transfected with BFRF1-Flag alone, lysed in RIPA buffer; anti-Flag mAb or nonspecific mouse IgG, protein A/G PLUS-Agarose; western blot for endogenous IKKi
Flag-tagged IRF3 = target: T2, Flag-tagged IRF3 (UniProt Q14653); experiment: co-IP; HEK293T co-transfected with tagged plasmids for 24 h, lysed in RIPA buffer; lysate with anti-Flag mAb or nonspecific mouse IgG at 4°C, protein A/G PLUS-Agarose, washed with PBS; western blot
T2 sequence: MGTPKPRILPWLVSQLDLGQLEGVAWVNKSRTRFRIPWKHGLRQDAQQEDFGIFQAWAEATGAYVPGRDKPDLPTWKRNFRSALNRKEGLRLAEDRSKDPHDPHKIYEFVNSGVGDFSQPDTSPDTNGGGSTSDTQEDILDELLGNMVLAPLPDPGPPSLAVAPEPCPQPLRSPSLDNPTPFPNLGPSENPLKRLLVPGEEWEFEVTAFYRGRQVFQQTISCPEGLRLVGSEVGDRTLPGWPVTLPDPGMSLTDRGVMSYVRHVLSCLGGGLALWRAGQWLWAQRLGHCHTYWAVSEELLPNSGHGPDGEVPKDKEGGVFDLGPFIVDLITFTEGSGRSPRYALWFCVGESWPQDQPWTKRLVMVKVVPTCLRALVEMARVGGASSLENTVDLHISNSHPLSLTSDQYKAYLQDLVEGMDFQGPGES

[3] = target: Flag-tagged IPS-1 (IFN promoter stimulator 1) (UniProt Q7Z434); experiment: as above
Flag-tagged RIG-I = target: T3, Flag-tagged RIG-I (UniProt O95786); experiment: as above
T3 sequence: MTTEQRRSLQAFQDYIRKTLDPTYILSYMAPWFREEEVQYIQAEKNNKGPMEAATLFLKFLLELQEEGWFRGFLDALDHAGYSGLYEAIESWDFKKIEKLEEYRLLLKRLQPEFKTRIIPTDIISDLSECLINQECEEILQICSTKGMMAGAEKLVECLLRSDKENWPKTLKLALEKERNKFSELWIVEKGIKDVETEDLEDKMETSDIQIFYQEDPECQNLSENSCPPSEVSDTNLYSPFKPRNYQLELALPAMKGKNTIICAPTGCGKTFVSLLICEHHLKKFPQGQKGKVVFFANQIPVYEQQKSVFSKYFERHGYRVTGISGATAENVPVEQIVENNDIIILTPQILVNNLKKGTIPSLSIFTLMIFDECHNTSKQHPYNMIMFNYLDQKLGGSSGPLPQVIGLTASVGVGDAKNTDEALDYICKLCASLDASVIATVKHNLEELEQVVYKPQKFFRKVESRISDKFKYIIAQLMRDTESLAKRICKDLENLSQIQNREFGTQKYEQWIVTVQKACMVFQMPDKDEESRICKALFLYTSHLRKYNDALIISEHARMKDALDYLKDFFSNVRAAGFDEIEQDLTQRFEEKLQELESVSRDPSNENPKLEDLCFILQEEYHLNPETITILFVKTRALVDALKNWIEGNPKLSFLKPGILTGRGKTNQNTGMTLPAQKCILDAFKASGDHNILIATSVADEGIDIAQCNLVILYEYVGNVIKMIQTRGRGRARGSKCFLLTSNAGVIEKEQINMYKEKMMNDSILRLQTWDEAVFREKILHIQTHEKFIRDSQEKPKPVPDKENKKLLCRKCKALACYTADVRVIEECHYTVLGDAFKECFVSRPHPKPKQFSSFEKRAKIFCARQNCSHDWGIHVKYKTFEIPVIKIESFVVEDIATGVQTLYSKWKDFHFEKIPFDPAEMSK

B1: Myc-tagged IKKi (inducible IκB kinase) (enzyme, UniProt Q14164 1-716)
chain: MQSTANYLWHTDDLLGQGATASVYKARNKKSGELVAVKVFNTTSYLRPREVQVREFEVLRKLNHQNIVKLFAVEETGGSRQKVLVMEYCSSGSLLSVLESPENAFGLPEDEFLVVLRCVVAGMNHLRENGIVHRDIKPGNIMRLVGEEGQSIYKLTDFGAARELDDDEKFVSVYGTEEYLHPDMYERAVLRKPQQKAFGVTVDLWSIGVTLYHAATGSLPFIPFGGPRRNKEIMYRITTEKPAGAIAGAQRRENGPLEWSYTLPITCQLSLGLQSQLVPILANILEVEQAKCWGFDQFFAETSDILQRVVVHVFSLSQAVLHHIYIHAHNTIAIFQEAVHKQTSVAPRHQEYLFEGHLCVLEPSVSAQHIAHTTASSPLTLFSTAIPKGLAFRDPALDVPKFVPKVDLQADYNTAKGVLGAGYQALRLARALLDGQELMFRGLHWVMEVLQATCRRTLEVARTSLLYLSSSLGTERFSSVAGTPEIQELKAAAELRSRLRTLAEVLSRCSQNITETQESLSSLNRELVKSRDQVHEDRSIQQIQCCLDKMNFIYKQFKKSRMRPGLGYNEEQIHKLDKVNFSHLAKRLLQVFQEECVQKYQASLVTHGKRMRVVHETRNHLRLVGCSVAACNTEAQGVQESLSKLLEELSHQLLQDRAKGAQASPPPIAPYPSPTRKDLLLHMQELCEGMKLLASDLLDNNRIIERLNRVPAPPDV
binding [1]: binds

B2: endogenous IKKi (enzyme, UniProt Q14164 1-716)
chain: MQSTANYLWHTDDLLGQGATASVYKARNKKSGELVAVKVFNTTSYLRPREVQVREFEVLRKLNHQNIVKLFAVEETGGSRQKVLVMEYCSSGSLLSVLESPENAFGLPEDEFLVVLRCVVAGMNHLRENGIVHRDIKPGNIMRLVGEEGQSIYKLTDFGAARELDDDEKFVSVYGTEEYLHPDMYERAVLRKPQQKAFGVTVDLWSIGVTLYHAATGSLPFIPFGGPRRNKEIMYRITTEKPAGAIAGAQRRENGPLEWSYTLPITCQLSLGLQSQLVPILANILEVEQAKCWGFDQFFAETSDILQRVVVHVFSLSQAVLHHIYIHAHNTIAIFQEAVHKQTSVAPRHQEYLFEGHLCVLEPSVSAQHIAHTTASSPLTLFSTAIPKGLAFRDPALDVPKFVPKVDLQADYNTAKGVLGAGYQALRLARALLDGQELMFRGLHWVMEVLQATCRRTLEVARTSLLYLSSSLGTERFSSVAGTPEIQELKAAAELRSRLRTLAEVLSRCSQNITETQESLSSLNRELVKSRDQVHEDRSIQQIQCCLDKMNFIYKQFKKSRMRPGLGYNEEQIHKLDKVNFSHLAKRLLQVFQEECVQKYQASLVTHGKRMRVVHETRNHLRLVGCSVAACNTEAQGVQESLSKLLEELSHQLLQDRAKGAQASPPPIAPYPSPTRKDLLLHMQELCEGMKLLASDLLDNNRIIERLNRVPAPPDV
binding [2]: binds

B3: HA-tagged IKKi (enzyme, UniProt Q14164 1-716)
chain: MQSTANYLWHTDDLLGQGATASVYKARNKKSGELVAVKVFNTTSYLRPREVQVREFEVLRKLNHQNIVKLFAVEETGGSRQKVLVMEYCSSGSLLSVLESPENAFGLPEDEFLVVLRCVVAGMNHLRENGIVHRDIKPGNIMRLVGEEGQSIYKLTDFGAARELDDDEKFVSVYGTEEYLHPDMYERAVLRKPQQKAFGVTVDLWSIGVTLYHAATGSLPFIPFGGPRRNKEIMYRITTEKPAGAIAGAQRRENGPLEWSYTLPITCQLSLGLQSQLVPILANILEVEQAKCWGFDQFFAETSDILQRVVVHVFSLSQAVLHHIYIHAHNTIAIFQEAVHKQTSVAPRHQEYLFEGHLCVLEPSVSAQHIAHTTASSPLTLFSTAIPKGLAFRDPALDVPKFVPKVDLQADYNTAKGVLGAGYQALRLARALLDGQELMFRGLHWVMEVLQATCRRTLEVARTSLLYLSSSLGTERFSSVAGTPEIQELKAAAELRSRLRTLAEVLSRCSQNITETQESLSSLNRELVKSRDQVHEDRSIQQIQCCLDKMNFIYKQFKKSRMRPGLGYNEEQIHKLDKVNFSHLAKRLLQVFQEECVQKYQASLVTHGKRMRVVHETRNHLRLVGCSVAACNTEAQGVQESLSKLLEELSHQLLQDRAKGAQASPPPIAPYPSPTRKDLLLHMQELCEGMKLLASDLLDNNRIIERLNRVPAPPDV
binding (Flag-tagged IRF3): binds

B4: Myc-tagged EBV BFRF1 (protein, UniProt P03185 1-336)
chain: MASPEERLLDELNNVIVSFLCDSGSLEVERCSGAHVFSRGSSQPLCTVKLRHGQIYHLEFVYKFLAFKLKNCNYPSSPVFVISNNGLATTLRCFLHEPSGLRSGQSGPCLGLSTDVDLPKNSIIMLGQDDFIKFKSPLVFPAELDLLKSMVVCRAYITEHRTTMQFLVFQAANAQKASRVMDMISDMSQQLSRSGQVEDTGARVTGGGGPRPGVTHSGCLGDSHVRGRGGWDLDNFSEAETEDEASYAPWRDKDSWSESEAAPWKKELVRHPIRRHRTRETRRMRGSHSRVEHVPPETRETVVGGAWRYSWRATPYLARVLAVTAVALLLMFLRWT
binding [3]: no binding
binding (Flag-tagged IRF3): no binding
binding (Flag-tagged RIG-I): no binding
